PubChem BioAssay AID624417 (National Center for Advancing Translational Sciences (NCATS), 2012)
The whole screen tested about 410,000 compounds, of which about 6,400 (1.6%) were called active. Inconclusive results, whose numbers are uncertain, are shown with a selection of clear calls. The call rests on the fitted dose curve; in most records, active means well fitted inhibition curve with a large enough effect; inconclusive means small, poorly fitted or top-dose-only effect; inactive means no such curve, though single readings can be large or run the other way. Potencies of inconclusive entries are left out as doubtful fits.

Molecular target: Glucagon-like peptide 1 receptor (Homo sapiens) (UniProt P43220)
Assay: qHTS of GLP-1 Receptor Inverse Agonists (Inhibition Mode); further: nearly all actives have a fitted effect of over 55% in size
Details: HEK293 GLP-1R CRE-luciferase, luminescence, 24 h, GLP-1R form is constitutively active; series mostly up to 38.3 µM
Summary of the method: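 HEK293 cells stably co-expressing constitutively active GLP-1R and a cAMP-responsive luciferase reporter were seeded in DMEM with 10% Nu serum, given compounds after 12 h, and incubated 24 h at 37 deg C. Luminescence was then read.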
Potency means the concentration at half of the fitted maximal effect; tags describe the fitted curve by direction and shape.

UniProt P43220, sequence (P43220 whole entry, looked up): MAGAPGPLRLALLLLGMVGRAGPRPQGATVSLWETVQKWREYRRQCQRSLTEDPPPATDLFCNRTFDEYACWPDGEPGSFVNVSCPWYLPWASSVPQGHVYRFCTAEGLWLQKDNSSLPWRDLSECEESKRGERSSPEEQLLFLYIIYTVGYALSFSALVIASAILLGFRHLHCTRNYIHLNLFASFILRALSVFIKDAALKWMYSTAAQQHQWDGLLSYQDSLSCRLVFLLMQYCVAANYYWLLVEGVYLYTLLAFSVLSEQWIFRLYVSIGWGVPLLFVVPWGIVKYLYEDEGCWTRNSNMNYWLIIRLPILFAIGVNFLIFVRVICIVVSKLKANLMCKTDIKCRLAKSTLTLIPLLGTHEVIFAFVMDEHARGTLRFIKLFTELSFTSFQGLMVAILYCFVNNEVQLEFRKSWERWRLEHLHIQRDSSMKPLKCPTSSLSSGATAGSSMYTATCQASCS

Structure (SMILES) | Potency
O=C1CN(C(=O)c2ccccc2)C(c2ccccc2)c2cc(F)ccc2N1 (configuration not stated) | inactive
COc1cc(C(=O)OC(C)C(=O)NC(=O)NC2CCCCC2)ccc1OC(F)F (configuration not stated) | inconclusive [inhibitor, single point]
CCN(CC)CCCNc1ncnc2c1cnn2-c1ccc(C)c(C)c1 | inconclusive [inhibitor, full curve]
Cc1ccccc1NC(=O)COc1coc(CN2CCCc3ccccc32)cc1=O | inconclusive [inhibitor, partial curve, poor fit]
CCOC(=O)N1CCN(C(=O)C[C@@H]2C[C@@]3(C(=O)OCC)CCC=C3N(Cc3ccc(Cl)cc3Cl)C2=O)CC1 | inconclusive [inhibitor, single point]
C[C@@]12C(=O)Nc3cc(F)c(F)cc3C(=O)N1[C@H]1c3ccccc3OC[C@@H]1[C@@H]2c1ccccc1 | inconclusive [inhibitor, partial curve, poor fit]
C=CCC[C@@H](Cc1ccc(F)cc1)C(=O)OC[C@H]1CCCN1C(=O)[C@@H](CC=C)CC(=O)N[C@H](CO)Cc1ccccc1 | inconclusive [inhibitor, partial curve, poor fit]
O=C(Nc1cc(C(F)(F)F)ccc1N1CCCC1)c1ccc2c(c1)OCO2 | inconclusive [inhibitor, single point]
CCN1c2ccccc2-c2nc3ccccc3n2C1c1ccccn1 (configuration not stated) | inconclusive [inhibitor, partial curve, poor fit]
C[C@@H](CSc1ccccc1)CN1CC[C@H](NC(=O)OCc2ccccc2)CCC1=O | inconclusive [inhibitor, single point]
Cc1ccc(Cc2c(-c3ccc(Br)cc3)nc3ccc(Br)cn23)cc1 | inconclusive [inhibitor, partial curve, poor fit]
COc1ccc([C@@H]2CC=C(C(=O)O)[C@H](c3ccc(C(C)(C)C)cc3)N2S(=O)(=O)c2ccc(C)cc2)cc1OC | inconclusive [inhibitor, single point]
CN1CCN(C(=O)CN2C(=O)NC(C)(c3ccc4ccccc4c3)C2=O)CC1 (configuration not stated) | inactive
CC1CCN(S(=O)(=O)c2nnc(NC(=O)c3cccc(Cl)c3)s2)CC1 | inconclusive [inhibitor, partial curve, poor fit]
c1ccc(-n2c(SCC3CCCCO3)nnc2-c2cccs2)cc1 (configuration not stated) | inconclusive [inhibitor, single point]
COc1ccc([N+](=O)[O-])cc1NC(=S)NC(NC(C)=O)C(Cl)(Cl)Cl (configuration not stated) | inconclusive [inhibitor, partial curve]
CCOc1ccc(C(=O)NC(=S)Nc2ccccc2N2CCCCC2)cc1[N+](=O)[O-] | inconclusive [inhibitor, partial curve, poor fit]
COc1ccc(CNC(=O)CN2C(=O)CSc3ccc(S(=O)(=O)N4CCC(C)CC4)cc32)cc1 | inconclusive [inhibitor, partial curve]
BrC(/C=N/Nc1nc(N2CCOCC2)nc(N2CCOCC2)n1)=C/c1ccccc1 | inconclusive [inhibitor, single point]
CCCCCC(=O)NNC(=O)c1ccc(F)cc1 | inactive
CCN(CC)C(=O)C(=O)Nc1ccc(Oc2ccccc2)cc1 | inconclusive [inhibitor, partial curve]

Structure (SMILES) | Potency
O=C(O)c1ccccc1C(=O)Nc1ccc(Oc2ccc3ccccc3c2)cc1 | inconclusive [inhibitor, single point]
CCCCCN(C(=O)CCC(=O)OCC(=O)c1ccc(C(C)CC)cc1)c1c(N)n(CCCC)c(=O)[nH]c1=O (configuration not stated) | inconclusive [inhibitor, single point]
Cc1cccc(NS(=O)(=O)c2ccc(C)c(C(=O)NCC(c3ccco3)N3CCCCC3)c2)c1 (configuration not stated) | inconclusive [inhibitor, partial curve, poor fit]
COc1ccc(/C=N/NC(=O)c2cccnc2)cc1COc1ccc([N+](=O)[O-])cc1 | inconclusive [inhibitor, partial curve]
COc1ccc(Cl)cc1NC(=S)NCCC(c1ccccc1)c1ccccc1 | inconclusive [inhibitor, single point]
CCCCC1=NN(C(=O)c2cccnc2)C(O)(C(F)(F)F)C1 (configuration not stated) | inconclusive [inhibitor, full curve, poor fit]
O=C1N(Cc2cccc(Cl)c2)C[C@@H]2C[C@@H](c3cccc4ncccc34)N3CCC[C@@]123 | active: 10 µM
COc1ccccc1CNC(=O)CN1C(=O)COc2ccc(S(=O)(=O)NC3CCCC3)cc21 | inconclusive [inhibitor, partial curve]
CCCCc1ccc(NC(=S)N2CCN(C(=O)OCC)CC2)cc1 | inconclusive [inhibitor, single point]
CCN(CC)CCCNC(=O)c1nn2c(C(F)(F)F)cc(-c3ccccc3)nc2c1Cl | inconclusive [inhibitor, partial curve]
O=C(C1CCN(S(=O)(=O)Cc2ccccc2)CC1)N1CCN(c2cccc(C(F)(F)F)c2)CC1 | inactive
CC(=O)Nc1ccc(C(=O)COC(=O)c2cccs2)c(F)c1 | inactive
CC(=O)C1CCC2C3CC=C4CC(SC(=N)N)CCC4(C)C3CCC12C (configuration not stated) | inconclusive [inhibitor, partial curve, poor fit]
CCNC(=S)/N=C(\N)Nc1nc(C)c2cc(C)ccc2n1 | inconclusive [inhibitor, single point]
Cc1ccc(OCC(=O)N2CCCC(CO)(CCOc3ccccc3)C2)cc1 (configuration not stated) | inconclusive [inhibitor, single point]
CC(C)CC(c1nnnn1C1CCCC1)N1CCN(c2ccccc2F)CC1 (configuration not stated) | inconclusive [inhibitor, single point]
CC1=NN(C(=O)c2ccccc2Br)C(O)(c2cccnc2)C1 (configuration not stated) | inactive
Cc1ccc(C(=O)NC(=S)NNS(=O)(=O)c2ccc(C)cc2)cc1 | inactive
C=CCN(CC=C)C(=O)c1cccc(S(=O)(=O)N2c3ccccc3CC2C)c1 (configuration not stated) | inconclusive [inhibitor, partial curve, poor fit]
CN(C)C(=O)CSc1nnc(C23CC4CC(CC(C4)C2)C3)o1 | inactive
Cc1ccc(CNC(=O)Nc2cccc(C)c2)cc1 | inactive

Structure (SMILES) | Potency
CCOC(=O)/C(C#N)=c1/s/c(=C2\C=Cc3ccccc3N2CC)c(=O)n1CC | inactive
Cc1ccc(NC(=O)C2OCCc3ccccc32)cc1Cl (configuration not stated) | inconclusive [inhibitor, single point]
COc1ccc(NC(=O)COC(=O)c2ccc(C)c(S(=O)(=O)N3CCCCC3)c2)cc1 | inconclusive [inhibitor, partial curve, poor fit]
Cc1cc(F)ccc1-c1cc(C(=O)NCc2cccc(C(F)(F)F)c2)[nH]n1 | inconclusive [inhibitor, single point]
COc1ccc2nc(N(Cc3cccnc3)C(=O)Cc3ccccc3)sc2c1 | inconclusive [inhibitor, single point]
COc1cc(S(=O)(=O)NCCc2c(C)[nH]c3ccccc23)c(C)cc1C | inconclusive [inhibitor, single point]
O=C(N/N=C/c1cccc([N+](=O)[O-])c1)c1cc2ccccc2o1 | inactive
O=C(COc1ccccc1Cc1ccccc1)Nc1cccc(S(=O)(=O)N2CCOCC2)c1 | inconclusive [inhibitor, single point]
C/C(=N\NC(=S)Nc1ccccc1)C1Cc2ccccc2C(=O)O1 (configuration not stated) | inconclusive [inhibitor, single point]
O=C(C1=C[C@H](c2ccc(C(F)(F)F)cc2)C[C@H](OCc2ccc(CO)cc2)O1)N1CCOCC1 | inconclusive [inhibitor, single point]
CCOC(=O)c1ccc(NC(=O)N2CCc3ccccc3C2)cc1 | inconclusive [inhibitor, partial curve, poor fit]
CC(C)C[C@H](CO)N(Cc1ccccc1)S(=O)(=O)N(Cc1ccccc1)[C@@H](CO)CC(C)C | active: 5.62 µM
CC(C)=C1C2C=CC1C1C(=O)N(c3ccc4c(c3)OCO4)C(=O)C21 (configuration not stated) | inconclusive [inhibitor, partial curve, poor fit]
C=CCc1cc(Cl)ccc1OCCOCCNCCOC | inconclusive [inhibitor, full curve, poor fit]
COC(=O)C1CC(=O)N(c2ccc(C)cc2)C1 (configuration not stated) | inactive
Cc1onc(-c2ccccc2Cl)c1C(=O)OCC(=O)c1ccccc1 | inconclusive [inhibitor, partial curve, poor fit]
CCN(CC)S(=O)(=O)c1ccc(NC(=O)c2c(-c3ccccc3)noc2C)cc1 | inconclusive [inhibitor, partial curve, poor fit]
COc1ccc(CC(O)CC2c3c(cc4c(c3OC)OCO4)CCN2C)cc1 (configuration not stated) | inconclusive [inhibitor, single point]
CC(=O)Oc1ccc(N(c2ccccc2)S(=O)(=O)c2ccc(C)cc2)cc1 | inconclusive [inhibitor, single point]
COc1ccc(C(=O)/C=C/c2ccc(OC)cc2OC)c(O)c1 | inactive
